# Source: PMC10668032
# Some of the results follow. At the low end of the ranking the order means little.
# Biological target: SIX1-Q177R homeodomain (UniProt Q15475)
# Experiment: universal protein binding microarray
# Conditions: Universal all-10-mer PBM (8x60K, AMADID 030236), 300 nM GST-tagged protein, Alexa Fluor 488 anti-GST; buffer, salt, pH and temperature not stated; high values mean tight binding; most listed sequences are background and not binding sites; double strand, one strand shown
row,Sequence,binding signal [E-score]
1,CAAGAGGA,-0.148
2,ATTGTCTC,-0.219
3,AAAGACGC,-0.186
4,TCCGTCGA,-0.083
5,GCTTCAAA,-0.21
6,CCAGGTAG,0.0625
7,ACGTGATC,0.0996
8,GCCTCGTA,-0.134
9,CCCTCTCA,-0.0263
10,ACACGCGA,0.369
11,AAGCCCCC,-0.126
12,CGCGGGGC,-0.0476
13,GTTGTTTA,0.0202
14,TGTAAAAA,0.0846
15,AACTACGC,0.00745
16,GTGTAGAA,0.427
17,ACCCGCGT,0.229
18,GCTTTTTA,-0.242
19,AATTTCCA,0.0255
20,CCGTTTCA,0.0765
21,CAGCTCCC,-0.032
22,GCCGCCAC,-0.0223
23,ATTATGCG,-0.0604
24,AGTTCATG,-0.0645
25,ATTGAGTG,0.18

row,Sequence,binding signal [E-score]
1,GTGGCTAA,-0.0849
2,ACGGAAGT,-0.121
3,CGATGGTA,-0.223
4,CAGTCTGA,-0.144
5,ACCTTTAT,-0.0534
6,AATCCGGA,0.0699
7,ACTTGAAT,-0.0688
8,CCCTTATC,-0.00344
9,CACACAAC,0.153
10,AACTTTAT,-0.127
11,GACGCACC,0.118
12,AATCCGAA,-0.139
13,ATAATTCA,-0.0898
14,ACATTAAC,0.0664
15,GCGGCCAA,-0.0563
16,CATACAAA,-0.211
17,AGTGTATC,0.399
18,AACACCCG,0.466
19,CTGGAAGC,-0.139
20,TAATCTAA,-0.213
21,GGGGTAAC,0.293
22,ACTCACAT,-0.0446
23,CCGGCATC,-0.00753
24,CTTTAAAG,-0.281
25,CCTAATAG,-0.0484

row,Sequence,binding signal [E-score]
1,ACGCGTCG,0.0532
2,AACCCTAC,0.147
3,CCGTGAGG,0.0995
4,AAAATAAT,-0.042
5,CTAACATC,0.0617
6,AATGTCCA,-0.174
7,TAGACAAA,-0.0331
8,AAGTGTGT,0.215
9,CACTATCA,0.141
10,TCGCACAA,0.00025
11,CTCTGCGC,-0.0232
12,GGCCGGCC,-0.231
13,GTCTGCAC,-0.0613
14,ACACCCTG,0.473
15,AATGCACT,-0.0269
16,AACGTTTA,-0.248
17,CATAATGC,-0.12
18,ATGTCGAC,-0.168
19,ACTGGGCC,-0.133
20,ACATGGGG,0.12
21,AGACCGGC,-0.103
22,AATTGAGC,-0.136
23,CAGGCCAA,-0.223
24,ACACGATG,0.391
25,AGTCCGTG,0.0517

row,Sequence,binding signal [E-score]
1,ATGAACAA,-0.31
2,ATCCATCG,-0.137
3,AATTCTCC,-0.133
4,CTCTATTC,0.0954
5,GGAACCGA,-0.103
6,ACATGGTA,-0.00895
7,GAGCTTCC,-0.181
8,ATTCTGCA,-0.212
9,AACAGGCG,0.0273
10,GGACTCAC,-0.181
11,AGTATCAT,0.259
12,CAAAGTTC,-0.172
13,GACCCCGA,0.253
14,CCTAACTC,-0.0299
15,CATCCGCG,-0.0167
16,CATCCCCC,0.14
17,GATCGATA,0.146
18,ATTCCAGC,-0.163
19,CGGTGTAC,0.487
20,GTTAAAAC,0.0066
21,ACTCCTGG,0.213
22,CGTCTGGA,-0.0703
23,CAGTATCG,0.0596
24,GTAGGGAA,-0.145
25,CAAATGGA,-0.0785

row,Sequence,binding signal [E-score]
1,CACGGGCG,0.204
2,AATTATGT,-0.113
3,GGCAGGGA,-0.159
4,ATAATGCG,0.00166
5,TGTAGGAA,0.139
6,CGATTTTC,-0.0842
7,ACCTGGAC,0.0986
8,TCTGCCCA,-0.221
9,CGGAGGAA,-0.247
10,AACGAAGA,-0.158
11,AGTATAAT,-0.0795
12,CTAATCTA,-0.151
13,AAGCAAGG,0.0547
14,CATAAATA,-0.145
15,AGTCACGG,0.012
16,ATCGTGCC,-0.0155
17,CACTAAGC,0.0348
18,CCGACCCA,0.125
19,ATAATCGG,0.0508
20,AGCCGTAT,-0.0652
21,CGGTCCTC,-0.266
22,ACAAGCTA,-0.232
23,CATGGGCC,-0.148
24,TGAAACCA,-0.0541
25,AACATAAC,-0.115

row,Sequence,binding signal [E-score]
1,ACGTAGGG,0.097
2,GCGCACTA,0.0736
3,GCAGAACC,0.0481
4,AATTCCCA,0.108
5,ACAGACCG,0.13
6,GATGTTGA,-0.187
7,ACTGGAAA,-0.0387
8,GGGCTTTA,-0.278
9,ACGCGTCT,-0.0848
10,GATCACGC,0.0462
11,AGGTTTGC,-0.0251
12,GTCTCGCA,-0.116
13,ATTAAAGA,-0.177
14,CACCACCC,0.336
15,ATTAGAAT,-0.091
16,CCCGAAAG,0.0237
17,AACTTGAT,-0.166
18,CCCCCACA,0.262
19,AATGTCTG,-0.319
20,CTGAAGAA,-0.284
21,CTGTGCGC,-0.062
22,AATTGCGA,-0.219
23,ATTACGAG,-0.0304
24,CGGAGCTA,-0.103
25,CTGGAAGA,0.00114

row,Sequence,binding signal [E-score]
1,CCGATGCC,-0.115
2,AATGCCCA,-0.0202
3,GCCATCCC,0.0164
4,AAGCCACG,-0.213
5,GCCTCAGA,-0.134
6,TCCGTTCA,-0.131
7,GGGCCTAC,-0.102
8,AACAATCG,-0.123
9,AGTTAAGA,0.155
10,AGCGACAA,-0.131
11,ACCTTAAC,-0.0349
12,AGGCTAAA,-0.182
13,GGGCTTAA,-0.0769
14,CCCACTGA,0.12
15,AAACGTGT,0.303
16,TTAGTCAA,-0.144
17,CATGATCC,0.0836
18,AAACCCCA,0.143
19,CAAACGTC,-0.294
20,CCGGCCTA,0.0361
21,CAGGGACC,-0.273
22,ATATGAGG,-0.256
23,AAGAAGGA,0.0116
24,CATGTGTC,0.19
25,AGTTACGG,-0.0278

row,Sequence,binding signal [E-score]
1,CTTAGAGC,-0.0633
2,AAATGAGA,-0.0756
3,AGGATGCA,-0.0849
4,GGGGGCTA,0.126
5,CAATAATC,-0.0519
6,GAGCGTAC,-0.00185
7,CTAACAGA,-0.186
8,GTTACTGA,0.102
9,TTCTAGAA,-0.0414
10,AACCTTTC,0.0505
11,CTGGCAGC,-0.222
12,ATCCCGTG,0.228
13,CCCGCTCA,0.12
14,ATTCCACC,0.0823
15,GCTAGACA,-0.0185
16,AAAAGACG,-0.142
17,AATGTCGG,-0.0152
18,ATTGAGAA,-0.214
19,CCCCGGGC,0.114
20,ACGCCTTC,-0.0324
21,GGTTATGA,0.152
22,AGCCGTTG,-0.159
23,GCCTGCGC,-0.191
24,AGTTATAG,0.0466
25,AACCCCGT,0.174

row,Sequence,binding signal [E-score]
1,CCTGGTCC,-0.158
2,ATAACCAC,0.0157
3,AATGGCTC,-0.0391
4,GACATAAC,-0.0279
5,CATCCGCA,-0.139
6,CCTCTTGA,-0.0566
7,ATTCGGAC,-0.0513
8,AAGGTAAC,0.0528
9,CAACTAGC,-0.0815
10,CTGTTTGA,-0.0403
11,AGGATGTA,-0.0421
12,CTATTCGC,-0.00226
13,GTTCCTAA,0.139
14,CTCGGGTA,0.168
15,GGTTGAAC,-0.00733
16,GATTTGTA,-0.125
17,AAGTCAAG,-0.185
18,ATTGTACC,-0.0772
19,CGGTTGGA,-0.0539
20,AGAACATG,-0.152
21,ACCCCTGA,0.24
22,GAACGTCC,-0.0783
23,CTGAGTCC,-0.167
24,GCTAGAAA,-0.211
25,CCAAACGG,-0.123

row,Sequence,binding signal [E-score]
1,GCAAGCAA,-0.227
2,CCAGACCG,-0.0322
3,AATCGAAG,-0.0378
4,CCACCTAC,0.17
5,AACTTATC,-0.214
6,ATCCTGTC,-0.152
7,CTGAAGAC,-0.0199
8,GGAAATTA,0.046
9,CTTGGGGC,-0.0372
10,GACGTATA,-0.109
11,CCTAGTCC,0.00572
12,ACCTGACA,0.228
13,AGTCGCGA,0.189
14,AAATAGTT,-0.209
15,ATAGCAGG,0.067
16,AGGGTAAA,0.0589
17,ATCCAACA,0.0961
18,ACAAGCAT,-0.0887
19,GAATTCCA,-0.261
20,ATCGATAG,-0.194
21,GCTCAGGA,-0.114
22,ATATATAA,-0.00381
23,GTACATGA,0.0241
24,AGACGAAC,-0.0372
25,AAATGGTT,-0.285

row,Sequence,binding signal [E-score]
1,AATTCGGT,-0.105
2,GCTTCTGA,-0.165
3,GAACGCTA,-0.126
4,CATGAGAG,-0.136
5,CTAACGCA,0.0146
6,AAGCCGCG,-0.0646
7,CTGCCTAC,-0.0173
8,AATCCAAC,0.096
9,AGCACGGA,0.0948
10,ACCCCCCA,0.306
11,AGATTCGG,0.0565
12,CACTATTA,0.158
13,GCCTTACC,-0.0667
14,GTCTTGGA,-0.0151
15,ACGCGTCA,0.099
16,GAAGAGAC,-0.0229
17,CCGTGAAG,-0.212
18,ATAGTATG,-0.034
19,GGGACGGA,-0.265
20,GTAATGTA,-0.0128
21,CCGATAAA,-0.178
22,CAGAAGTA,-0.196
23,GTATAGAC,-0.0241
24,ATGCACTA,-0.0351
25,AGAAATAT,-0.0575

row,Sequence,binding signal [E-score]
1,GAAAACGC,-0.129
2,ACACCCTA,0.466
3,ACCCACCA,0.2
4,AACGTTGA,-0.227
5,CGCATACA,0.185
6,TGTGAAAA,0.0116
7,GTTAAGTA,0.077
8,AAACCGAT,-0.0306
9,CTGCCACA,-0.00215
10,AGCTTCGC,-0.228
11,CTTAGTCA,-0.304
12,GAAGGCTA,-0.249
13,AACAGTAA,-0.137
14,CCACCTTC,0.19
15,AGCGATGC,-0.263
16,AAATGACC,-0.0386
17,ATACTGAT,0.0331
18,ATTGCCGC,-0.26
19,AATTATAT,0.0479
20,AGAATCGC,-0.0585
21,GGGCCACC,-0.156
22,ATTGGCTA,-0.235
23,ATTACGCG,0.0608
24,AAGTACCT,0.0031
25,ACAAGTCG,-0.104

row,Sequence,binding signal [E-score]
1,CGCCTCGC,-0.089
2,GCATTAAC,0.0583
3,TAAGCATA,-0.042
4,GAACAATC,-0.302
5,AGTTAGCA,0.0431
6,CTGTCTAA,-0.0271
7,CCGAAAGA,-0.203
8,GGATCAAC,0.111
9,ACGACCCA,0.129
10,ACCTTACT,0.128
11,AACAGTTC,-0.162
12,GTCTACTA,-0.0466
13,ACTCGAAT,-0.221
14,GACGTTTA,-0.121
15,GTGAGGAA,-0.0427
16,TCCCTCAA,0.00936
17,ATCCTTCC,-0.132
18,GCAGTCTA,-0.223
19,AATGAGTA,-0.0919
20,ATGTATCG,-0.0358
21,ACGGATCG,0.128
22,AGGCGGCA,-0.0211
23,GCCCTAGA,-0.104
24,CAGTTGGA,-0.126
25,ACGCATGG,0.0703

row,Sequence,binding signal [E-score]
1,AGCGAGTC,-0.101
2,CATCTGCC,-0.00291
3,AGGAACCA,-0.0172
4,TATAATGA,-0.11
5,CACACTCG,0.353
6,GGTGGTTA,0.103
7,CCCTCCAA,0.0698
8,AAGCTCCC,-0.0335
9,CAACGCCA,0.175
10,ACACTCAA,0.39
11,ATTTTTCC,-0.134
12,GAGCTTGA,-0.177
13,CCCGCCGG,0.245
14,CACTTTGA,0.0743
15,ATAACTAT,-0.251
16,TAAACTCA,0.0284
17,ACCGACCG,0.00509
18,TATAAACA,0.169
19,AGTTTAGC,-0.128
